Experimental data published in the supplement of paper PMC10126150.
Sequences with one replicate were seen in a single cluster, so their values are uncertain.

Test system: ATP
Test: switch fluorescence ratio, 500 uM ATP over buffer (Cy3 cluster intensity, sum of 5 cycles each) (fold (ratio)); higher = stronger signal-on switching upon ATP binding; sequences stand for … in TCGTCGGCAGCGTCAGATGTGTATAAGAGACAGTTTTTTTTTTTTTTTTTTTTTTTTT…TC
Details: aptamer strand: ATP DNA aptamer (quencher-CACCTGGGGGAGTATTGCGGAGGAAGG + anchor), 100 nM annealed; ATP concentration: 500 uM; one replicate
How it was run: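 Cy3-labelled switching-strand clusters on a modified Illumina MiSeq flow-cell were annealed to 100 nM quencher-labelled ATP aptamer and imaged first in selection buffer, then after 15 min with 500 uM ATP at 22 °C. NaOH stripping and re-annealing separated each of five buffer/ATP cycles, and clusters outside 100-1000 RFU were excluded. The fluorescence ratio sums target-cycle Cy3 intensity over buffer-cycle Cy3 intensity per cluster and averages it per switch-domain sequence.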
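Note: ATP exposure 15 min at 22 °C before imaging.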

Which switch fluorescence ratio does the source give for ATGAGTCCGA here?
The switch fluorescence ratio was 1.21.

How did the switch fluorescence ratio turn out when ATGAGTCGTC was run?
Its switch fluorescence ratio is 0.956.

ATGAGTTACG was tested. Which switch fluorescence ratio did it give?
Its switch fluorescence ratio is 0.979.

How did the switch fluorescence ratio turn out when ATGATAGGG was run?
Its switch fluorescence ratio is 0.992.

ATGATATCTG was tested. Which switch fluorescence ratio did it give?
Its switch fluorescence ratio is 1.02.

With ATGATCGAAA as the sequence, how does the switch fluorescence ratio read?
Its switch fluorescence ratio is 0.982.

ATGATCGTGT was tested. Which switch fluorescence ratio did it give?
Its switch fluorescence ratio is 1.08.

ATGATGTGCC was tested. Which switch fluorescence ratio did it give?
Its switch fluorescence ratio is 0.985.

ATGATTTGTT was tested. Which switch fluorescence ratio did it give?
Its switch fluorescence ratio is 1.02.

ATGCACATGT was tested. Which switch fluorescence ratio did it give?
The switch fluorescence ratio was 1.08.

ATGCAGTGTC was tested. Which switch fluorescence ratio did it give?
Its switch fluorescence ratio is 0.943.

For ATGCATACAG, which switch fluorescence ratio is on record?
The switch fluorescence ratio was 1.03.

How did the switch fluorescence ratio turn out when ATGCATCTCA was run?
Its switch fluorescence ratio is 1.03.

With ATGCATCTCG as the sequence, how does the switch fluorescence ratio read?
The switch fluorescence ratio was 0.969.

Which switch fluorescence ratio does the source give for ATGCATGGCG here?
The switch fluorescence ratio was 1.04.

Which switch fluorescence ratio does the source give for ATGCCAACGT here?
Its switch fluorescence ratio is 1.

For ATGCCAAGGG, which switch fluorescence ratio is on record?
Its switch fluorescence ratio is 1.05.

How did the switch fluorescence ratio turn out when ATGCCAGGAT was run?
The switch fluorescence ratio was 1.02.

Which switch fluorescence ratio does the source give for ATGCCATATC here?
The switch fluorescence ratio was 0.997.

For ATGCCCGCCG, which switch fluorescence ratio is on record?
The switch fluorescence ratio was 1.02.

For ATGCCGCAGG, which switch fluorescence ratio is on record?
The switch fluorescence ratio was 1.01.

For ATGCCGCGAT, which switch fluorescence ratio is on record?
The switch fluorescence ratio was 1.08.

How did the switch fluorescence ratio turn out when ATGCCTAAAA was run?
Its switch fluorescence ratio is 1.

Which switch fluorescence ratio does the source give for ATGCGAAAAG here?
The switch fluorescence ratio was 0.995.

How did the switch fluorescence ratio turn out when ATGCGAATTC was run?
The switch fluorescence ratio was 1.03.

How did the switch fluorescence ratio turn out when ATGCGAGGG was run?
The switch fluorescence ratio was 1.01.

With ATGCGATTAG as the sequence, how does the switch fluorescence ratio read?
Its switch fluorescence ratio is 0.971.

For ATGCGCAT, which switch fluorescence ratio is on record?
The switch fluorescence ratio was 0.958.

For ATGCGCGGCG, which switch fluorescence ratio is on record?
The switch fluorescence ratio was 1.04.

ATGCGGTCAG was tested. Which switch fluorescence ratio did it give?
The switch fluorescence ratio was 0.993.

For ATGCTAGTAA, which switch fluorescence ratio is on record?
Its switch fluorescence ratio is 0.982.

ATGCTCGGCC was tested. Which switch fluorescence ratio did it give?
The switch fluorescence ratio was 0.989.

ATGCTCTGCT was tested. Which switch fluorescence ratio did it give?
The switch fluorescence ratio was 1.02.

With ATGCTGAGCA as the sequence, how does the switch fluorescence ratio read?
Its switch fluorescence ratio is 0.999.

Which switch fluorescence ratio does the source give for ATGCTGGCGG here?
The switch fluorescence ratio was 1.01.

With ATGCTGTCGT as the sequence, how does the switch fluorescence ratio read?
Its switch fluorescence ratio is 1.02.

With ATGCTTCCTG as the sequence, how does the switch fluorescence ratio read?
The switch fluorescence ratio was 1.06.

For ATGCTTGATC, which switch fluorescence ratio is on record?
Its switch fluorescence ratio is 1.07.

With ATGCTTTATG as the sequence, how does the switch fluorescence ratio read?
The switch fluorescence ratio was 1.01.

With ATGGAAGCGA as the sequence, how does the switch fluorescence ratio read?
The switch fluorescence ratio was 1.01.

With ATGGACAGAC as the sequence, how does the switch fluorescence ratio read?
The switch fluorescence ratio was 1.16.

With ATGGACAGCA as the sequence, how does the switch fluorescence ratio read?
Its switch fluorescence ratio is 1.03.

For ATGGACCTAA, which switch fluorescence ratio is on record?
The switch fluorescence ratio was 1.03.

ATGGAGCATC was tested. Which switch fluorescence ratio did it give?
Its switch fluorescence ratio is 1.95.

For ATGGATAATA, which switch fluorescence ratio is on record?
Its switch fluorescence ratio is 1.03.

ATGGATCCCA was tested. Which switch fluorescence ratio did it give?
The switch fluorescence ratio was 0.989.

Which switch fluorescence ratio does the source give for ATGGATTACG here?
The switch fluorescence ratio was 0.978.

How did the switch fluorescence ratio turn out when ATGGCAGGC was run?
Its switch fluorescence ratio is 1.05.

ATGGCATGGC was tested. Which switch fluorescence ratio did it give?
Its switch fluorescence ratio is 0.972.

Which switch fluorescence ratio does the source give for ATGGCCCCGG here?
The switch fluorescence ratio was 0.997.

How did the switch fluorescence ratio turn out when ATGGCCCGGG was run?
Its switch fluorescence ratio is 0.85.

Which switch fluorescence ratio does the source give for ATGGCCGATC here?
The switch fluorescence ratio was 0.982.

ATGGCCGCTG was tested. Which switch fluorescence ratio did it give?
Its switch fluorescence ratio is 1.03.

With ATGGCCTGCG as the sequence, how does the switch fluorescence ratio read?
Its switch fluorescence ratio is 1.03.

ATGGCCTGT was tested. Which switch fluorescence ratio did it give?
The switch fluorescence ratio was 1.06.

Which switch fluorescence ratio does the source give for ATGGCGCTAG here?
Its switch fluorescence ratio is 0.984.

With ATGGGACAGA as the sequence, how does the switch fluorescence ratio read?
The switch fluorescence ratio was 1.

ATGGGATAGT was tested. Which switch fluorescence ratio did it give?
Its switch fluorescence ratio is 0.987.

Which switch fluorescence ratio does the source give for ATGGGATGTA here?
The switch fluorescence ratio was 1.03.

ATGGGCACCA was tested. Which switch fluorescence ratio did it give?
The switch fluorescence ratio was 1.

With ATGGGCATGA as the sequence, how does the switch fluorescence ratio read?
The switch fluorescence ratio was 1.01.

ATGGGCCTAA was tested. Which switch fluorescence ratio did it give?
Its switch fluorescence ratio is 0.955.

For ATGGGGTTGA, which switch fluorescence ratio is on record?
The switch fluorescence ratio was 1.05.

ATGGGTATCG was tested. Which switch fluorescence ratio did it give?
The switch fluorescence ratio was 0.986.

How did the switch fluorescence ratio turn out when ATGGGTCACT was run?
The switch fluorescence ratio was 1.02.

With ATGGGTTAAG as the sequence, how does the switch fluorescence ratio read?
Its switch fluorescence ratio is 1.02.

With ATGGTACCC as the sequence, how does the switch fluorescence ratio read?
Its switch fluorescence ratio is 1.03.

Which switch fluorescence ratio does the source give for ATGGTATGCA here?
The switch fluorescence ratio was 0.999.

Which switch fluorescence ratio does the source give for ATGGTATTGT here?
Its switch fluorescence ratio is 0.987.

ATGGTCACAT was tested. Which switch fluorescence ratio did it give?
The switch fluorescence ratio was 1.01.

ATGGTCCGTT was tested. Which switch fluorescence ratio did it give?
The switch fluorescence ratio was 0.996.

For ATGGTCGACC, which switch fluorescence ratio is on record?
Its switch fluorescence ratio is 1.

How did the switch fluorescence ratio turn out when ATGGTCTATG was run?
Its switch fluorescence ratio is 0.969.

ATGGTGCGCG was tested. Which switch fluorescence ratio did it give?
Its switch fluorescence ratio is 1.01.

Which switch fluorescence ratio does the source give for ATGGTGTCCA here?
Its switch fluorescence ratio is 1.02.

ATGGTTAATG was tested. Which switch fluorescence ratio did it give?
The switch fluorescence ratio was 1.02.

For ATGGTTGGGC, which switch fluorescence ratio is on record?
Its switch fluorescence ratio is 0.967.

With ATGGTTGGTT as the sequence, how does the switch fluorescence ratio read?
Its switch fluorescence ratio is 0.993.

How did the switch fluorescence ratio turn out when ATGGTTTGA was run?
Its switch fluorescence ratio is 0.94.

Which switch fluorescence ratio does the source give for ATGGTTTGTG here?
The switch fluorescence ratio was 0.987.

ATGTACATGG was tested. Which switch fluorescence ratio did it give?
The switch fluorescence ratio was 1.02.

For ATGTACCTCT, which switch fluorescence ratio is on record?
The switch fluorescence ratio was 1.04.

With ATGTACGGCA as the sequence, how does the switch fluorescence ratio read?
Its switch fluorescence ratio is 1.02.

How did the switch fluorescence ratio turn out when ATGTAGATCA was run?
The switch fluorescence ratio was 1.04.

ATGTAGCGCC was tested. Which switch fluorescence ratio did it give?
The switch fluorescence ratio was 0.981.

For ATGTAGCGGG, which switch fluorescence ratio is on record?
The switch fluorescence ratio was 0.974.

With ATGTAGTAAA as the sequence, how does the switch fluorescence ratio read?
Its switch fluorescence ratio is 0.999.

How did the switch fluorescence ratio turn out when ATGTATAGTG was run?
The switch fluorescence ratio was 0.965.

With ATGTATGAGA as the sequence, how does the switch fluorescence ratio read?
Its switch fluorescence ratio is 0.988.

For ATGTCATTAA, which switch fluorescence ratio is on record?
The switch fluorescence ratio was 1.01.

Which switch fluorescence ratio does the source give for ATGTCGCTGA here?
The switch fluorescence ratio was 0.983.

For ATGTCTAATG, which switch fluorescence ratio is on record?
The switch fluorescence ratio was 1.04.

For ATGTCTTATT, which switch fluorescence ratio is on record?
The switch fluorescence ratio was 0.945.

Which switch fluorescence ratio does the source give for ATGTGAACAC here?
The switch fluorescence ratio was 0.983.

Which switch fluorescence ratio does the source give for ATGTGACACT here?
The switch fluorescence ratio was 1.

How did the switch fluorescence ratio turn out when ATGTGAGTAA was run?
The switch fluorescence ratio was 1.02.

How did the switch fluorescence ratio turn out when ATGTGATGT was run?
Its switch fluorescence ratio is 0.99.

Which switch fluorescence ratio does the source give for ATGTGCAGGA here?
The switch fluorescence ratio was 0.999.

Which switch fluorescence ratio does the source give for ATGTGCAGGT here?
Its switch fluorescence ratio is 1.04.

With ATGTGCCTTT as the sequence, how does the switch fluorescence ratio read?
Its switch fluorescence ratio is 1.01.
